This note sets out measurements from PMC12537989.

Results are given in words; binding and its absence hold for the method and conditions named. Binding seen in cells or lysates may run through a third protein. Some entries that bind do so weakly or less than the wild type.

Assay in all cases: co-IP; HEK293T cells co-transfected with SLC9A9 and the partner plasmid, collected 36 h after transfection; lysed in 50 mM Tris-HCl pH 7.4, 1 mM EDTA, 150 mM NaCl, 1% Triton; protein A/G Plus-Agarose and 3 ug antibody, 12 h at 4 C, 5 washes; immunoblot; some samples with amiloride treatment (interaction inhibited)
Assay [1] addresses T1, Vps18 (mouse) (UniProt Q8R307).
T1 sequence: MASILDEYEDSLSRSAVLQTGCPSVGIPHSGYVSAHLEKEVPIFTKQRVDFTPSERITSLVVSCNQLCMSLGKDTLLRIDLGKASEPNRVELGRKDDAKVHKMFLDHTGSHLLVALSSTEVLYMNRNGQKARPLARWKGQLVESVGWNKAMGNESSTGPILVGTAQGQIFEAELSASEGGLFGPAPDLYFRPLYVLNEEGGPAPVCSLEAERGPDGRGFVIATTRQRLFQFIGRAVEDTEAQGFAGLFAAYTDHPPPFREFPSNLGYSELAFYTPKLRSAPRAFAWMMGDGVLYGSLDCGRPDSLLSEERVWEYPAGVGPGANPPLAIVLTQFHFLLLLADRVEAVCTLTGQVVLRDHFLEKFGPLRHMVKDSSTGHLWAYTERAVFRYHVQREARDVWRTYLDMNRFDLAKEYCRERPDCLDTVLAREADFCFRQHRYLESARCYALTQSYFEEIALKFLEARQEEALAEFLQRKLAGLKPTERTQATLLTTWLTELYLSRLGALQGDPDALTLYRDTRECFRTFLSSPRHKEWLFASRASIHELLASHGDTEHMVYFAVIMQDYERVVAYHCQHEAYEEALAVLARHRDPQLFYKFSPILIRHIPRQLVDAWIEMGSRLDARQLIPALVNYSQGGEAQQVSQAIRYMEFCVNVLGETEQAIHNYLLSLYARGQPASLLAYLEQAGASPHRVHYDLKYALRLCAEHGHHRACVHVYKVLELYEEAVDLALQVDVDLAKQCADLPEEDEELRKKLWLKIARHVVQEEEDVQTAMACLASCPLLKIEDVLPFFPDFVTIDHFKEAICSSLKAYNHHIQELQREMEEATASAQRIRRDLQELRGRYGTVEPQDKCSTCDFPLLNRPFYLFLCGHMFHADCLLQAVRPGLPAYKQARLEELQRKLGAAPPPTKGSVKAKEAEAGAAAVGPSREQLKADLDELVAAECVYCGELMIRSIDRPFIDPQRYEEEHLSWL

In assay [2] the target is T2, Vps33b (mouse) (UniProt P59016).
T2 sequence: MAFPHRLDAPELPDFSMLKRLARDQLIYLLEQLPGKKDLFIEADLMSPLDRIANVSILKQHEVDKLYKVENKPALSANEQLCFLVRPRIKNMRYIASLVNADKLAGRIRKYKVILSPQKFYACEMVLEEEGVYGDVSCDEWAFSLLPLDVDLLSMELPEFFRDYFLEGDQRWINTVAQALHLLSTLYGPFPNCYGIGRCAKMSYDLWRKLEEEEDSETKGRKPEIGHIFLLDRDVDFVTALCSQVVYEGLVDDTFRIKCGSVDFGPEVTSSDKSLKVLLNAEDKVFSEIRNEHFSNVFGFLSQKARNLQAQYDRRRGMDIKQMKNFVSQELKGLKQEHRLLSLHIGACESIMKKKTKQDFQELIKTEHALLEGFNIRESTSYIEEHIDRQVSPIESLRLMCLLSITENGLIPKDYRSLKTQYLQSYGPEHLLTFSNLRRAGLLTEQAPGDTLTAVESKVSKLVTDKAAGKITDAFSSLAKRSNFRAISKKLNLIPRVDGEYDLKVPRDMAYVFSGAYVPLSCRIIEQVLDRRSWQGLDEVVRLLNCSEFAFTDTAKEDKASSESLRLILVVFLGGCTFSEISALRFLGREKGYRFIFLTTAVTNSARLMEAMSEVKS

Assay [3] deals with T3, Rab5b (mouse) (UniProt P61021).
T3 sequence: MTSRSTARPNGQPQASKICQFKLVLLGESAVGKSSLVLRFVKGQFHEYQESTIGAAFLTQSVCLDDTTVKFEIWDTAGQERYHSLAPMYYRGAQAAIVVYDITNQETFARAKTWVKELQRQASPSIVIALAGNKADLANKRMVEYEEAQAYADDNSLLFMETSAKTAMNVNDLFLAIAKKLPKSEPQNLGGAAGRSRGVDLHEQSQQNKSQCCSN

In assay [4] the target is T4, Vps33a (mouse) (UniProt Q9D2N9).
T4 sequence: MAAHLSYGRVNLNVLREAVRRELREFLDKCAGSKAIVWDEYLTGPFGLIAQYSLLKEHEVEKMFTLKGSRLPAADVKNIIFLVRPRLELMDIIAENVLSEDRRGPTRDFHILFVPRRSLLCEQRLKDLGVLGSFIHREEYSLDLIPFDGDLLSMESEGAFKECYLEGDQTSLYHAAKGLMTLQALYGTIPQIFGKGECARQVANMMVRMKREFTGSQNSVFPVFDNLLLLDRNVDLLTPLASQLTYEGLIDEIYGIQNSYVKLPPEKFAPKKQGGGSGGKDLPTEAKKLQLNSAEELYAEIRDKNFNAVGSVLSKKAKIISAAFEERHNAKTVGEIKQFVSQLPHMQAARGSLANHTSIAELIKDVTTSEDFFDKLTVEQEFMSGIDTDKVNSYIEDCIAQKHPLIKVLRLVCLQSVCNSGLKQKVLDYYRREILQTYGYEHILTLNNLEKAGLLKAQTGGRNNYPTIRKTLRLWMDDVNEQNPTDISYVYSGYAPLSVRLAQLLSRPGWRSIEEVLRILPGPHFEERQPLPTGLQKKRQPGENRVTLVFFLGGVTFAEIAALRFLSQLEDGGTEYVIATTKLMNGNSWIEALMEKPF

B1: Endosomal solute carrier family 9 member A9 (SLC9A9) (protein, UniProt Q8BZ00 1-644)
chain: MAGQLRFTSGKDEDHFQHQGAVELLAFNFLLILTILTIWLFKNHRFRFLHETGGAMVYGLIMGLILRYATAPTDIDSGTVYNCGNLFFSPSTLLVNITDQVYEYKYQREINQHNISPHQGNAILEKMTFDPEIFFNVLLPPIIFHAGYSLKKRHFFQNLGSILTYAFLGTAISCVVIGLIMYGFVKAMVHAGQLKSGDFHFTDCLFFGSLMSATDPVTVLAIFHELHVDPDLYTLLFGESVLNDAVAIVLTYSISIYSPKENPNAFDTAAFFQSVGNFLGIFAGSFAMGSAYAVVTALLTKFTKLREFPMLETGLFFLLSWSAFLSAEAAGLTGIVAVLFCGVTQAHYTYNNLSSDSKLRTKQLFEFMNFLAENVIFCYMGLALFTFQNHIFNALFILGAFLAIFVARACNIYPLSFLLNLGRKQKIPWNFQHMMMFSGLRGAIAFALAIRNTESQPKQMMFTTTLLLVFFTVWVFGGGTTPMLTWLQIRVGVDLDESLKEEPSSQQEANKLDKNMTKTESAQLFRMWYGFDHKYLKPILTHSGPPLTTTLPAWCGPVSRLLTSPQAYGEQLKEDDVECIVNQDELAMNYQEQSPSPSSPTTKLALDQKSSGQTPGKENIYEGDLGLGGYDLKLEQTRGQPQMD
Turning to B1, the binding entry in assay [1] is “binds”; in assay [2], “binds”; in assay [3] it was “no binding”; in assay [4] it was “binds”.
